# Assay results from PubChem BioAssay AID686979 (National Center for Advancing Translational Sciences (NCATS), 2013).
# Several values for one entry are separate records, joined by “and”; a condition that tells them apart may be missing. Equal values may be shown once. Hit rate of the full screen: of about 420,000 compounds, about 50,000 (12%) were called active. The shares of active, inactive and inconclusive entries below differ from those in the screen. Calls follow the shape of the dose curve; as a rule, active = well fitted inhibition curve with a large enough effect; inconclusive = small, poorly fitted or top-dose-only effect; inactive = flat fitted curve, though single readings scatter. Potencies beside an inconclusive call are fits to weak or partial responses and may not hold up.
# Assay: qHTS for Inhibitors of human tyrosyl-DNA phosphodiesterase 1 (TDP1): qHTS in cells in presence of CPT; also: nearly all actives have a fitted effect of over 55% in size
# Settings: chicken DT40 Tdp1-/-;hTDP1 cells + 20 nM CPT, ATP luminescence, 48 h; series mostly up to 46.2 µM
# Summary of the method: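 Chicken DT40 Tdp1-/- cells complemented with human TDP1, 400 cells/well, exposed to compounds plus 20 nM camptothecin for at least 48 h at 37 C; viability read as ATP content by CellTiter-Glo luminescence.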
# Potency is read from the fitted curve at half-maximal effect; tags tell the direction and shape of the fitted curve.
row,SMILES,Potency
1,Cc1cc(C)c2nc(Cl)c(CN(Cc3ccco3)C(=O)Nc3ccccc3C)cc2c1,active: 5.17 µM
2,Cc1cccc(NC(=O)CSCC(=O)N(C)Cc2c(F)cccc2Cl)c1,"inconclusive: 32.6 µM [inhibitor, single point]"
3,Cn1nc(C(C)(C)C)c([N+](=O)[O-])c1C(=O)NCCO,"inconclusive: 18.4 µM [inhibitor, single point]"
4,CCCOc1ccc(CNC(=S)Nc2ccccc2)cc1Cl,"inconclusive: 25.9 µM [inhibitor, single point]"
5,O=C(/C=C/c1ccco1)NC(=S)NNC(=O)c1ccco1,active: 16.4 µM
6,COc1ccc(C(=O)CC(=O)c2ccccc2O)cc1OC,"inconclusive: 29.1 µM [inhibitor, single point]"
7,COc1ccc(N(CC(=O)NC2CCCCC2)C(=O)CCC(=O)Nc2nc(C)cs2)cc1OC,inactive
8,CC(=O)CCC1C2C(O)C(C(C)C)C(OC(=O)/C=C/c3ccccc3)CC12C (stereo not drawn),active: 18.4 µM
9,Cc1ccc(N2CC(NC(=O)c3cc4ccccc4o3)CC2=O)cc1 (stereo not drawn),"inconclusive: 23.1 µM [inhibitor, single point]"
10,Cc1ccc(-n2ncc3c(NCc4ccccc4)ncnc32)cc1,"inconclusive: 16.4 µM [inhibitor, single point]"
11,CCN(CC)CCCn1c2c(c(SCC(=O)Nc3cc(OC)cc(OC)c3)nc1=O)CCC2,"inconclusive: 11.6 µM [inhibitor, partial curve]"
12,Cc1ccc(S(=O)(=O)N2C/C=C\CN(S(=O)(=O)c3ccccc3Br)CC2)cc1,"inconclusive: 29.1 µM [inhibitor, single point]"
13,O=C(CSc1ncnc2c1oc1ccccc12)Nc1cccc(F)c1,"inconclusive: 20.6 µM [inhibitor, partial curve]"
14,COCCNc1nc(N)c([N+](=O)[O-])c(NCc2ccccc2)n1,"inconclusive: 4.11 µM [inhibitor, full curve]"
15,Cn1nc(-c2ccccc2F)c2cc(C(=O)Nc3ccc4c(c3)OCCO4)sc21,"inconclusive: 29.1 µM [inhibitor, single point]"
16,CCc1ccc(Cn2c(CNS(=O)(=O)c3ccc(C)c(C)c3)nc3cccnc32)cc1,"inconclusive: 23.1 µM [inhibitor, single point]"
17,Cc1ccccc1NC(=O)C1CC(Cl)=CCC1C(=O)O (stereo not drawn),"inconclusive: 25.9 µM [inhibitor, single point]"
18,CCCCNC(=O)c1cc2n(n1)CCCN(Cc1ccc(C)cc1)C2=O,"inconclusive: 13 µM [inhibitor, partial curve]"
19,CC(C)(C)NC(=O)COC(=O)c1ccccc1Nc1ccc(SC(F)F)cc1,"inconclusive: 20.6 µM [inhibitor, single point]"
20,CC1(C)CC(=O)C2=C(C1)N(Cc1ccco1)C(=O)C2(NC(=O)c1ccc(Cl)cc1Cl)C(F)(F)F (stereo not drawn),"inconclusive: 23.1 µM [inhibitor, single point]"
21,CCOc1ccc(S(=O)(=O)N2CCOCC2)cc1NC(=O)CCOc1ccc(C(C)(C)C)cc1,"inconclusive: 29.1 µM [inhibitor, single point]"
22,F[B-](F)(F)c1cc2ccccc2s1,inactive
23,Fc1ccc(C2=Nn3c(nnc3-c3n[nH]c4c3CCC4)SC2)cc1,"inconclusive: 29.1 µM [inhibitor, single point]"

row,SMILES,Potency
1,COc1ccc(NC(=O)Cn2c(=O)n(Cc3ccccc3)c(=O)c3sc4ccccc4c32)cc1,inactive
2,COc1ccc(/C=N/NC(=O)CCC(=O)Nc2ccc(F)cc2)c(OC)c1,inactive
3,C=CC(=O)Nc1cccc(CN2C(=O)N(c3cc(OC)cc(OC)c3)Cc3cnc(NCCCCN(CC)CC)nc32)c1,inactive
4,COc1ccc(Cl)cc1NC(=O)N1CCN(CCc2ccccc2)CC1,"inconclusive: 12.6 µM [inhibitor, partial curve]"
5,Cc1ccc(C)c(Sc2ccc(NC(=O)CCl)cc2)c1,active: 16.4 µM
6,CCCCN(C)CCNC(=O)c1cc2c(=O)n(C)c3ccccc3c2n1C,"inconclusive: 29.1 µM [inhibitor, single point]"
7,COc1ccc([N+](=O)[O-])cc1NC(=O)COC(=O)C12CC3CC(CC(O)(C3)C1)C2,inactive
8,CC1CCCC(C)N1/N=C/c1ccc([N+](=O)[O-])cc1 (stereo not drawn),"inconclusive: 18.4 µM [inhibitor, partial curve]"
9,CCn1ncc(Br)c1C(=O)Nc1cccc(F)c1,inactive
10,CCOc1ccc(N2CC(C(=O)Nc3ccc(S(=O)(=O)N4CCCCC4)cc3)CC2=O)cc1 (stereo not drawn),"inconclusive: 29.1 µM [inhibitor, single point]"
11,COc1ccc(N2C(=O)c3ccccc3NC2c2ccc(OC)c(CN3CCOCC3)c2)cc1 (stereo not drawn),inactive
12,O=C(/C=C/c1c[nH]c2ccccc12)c1cccc2ccccc12,active: 16.4 µM
13,CC(C)(C)NC(=O)c1cccc(NC(=O)CSc2ccccc2)c1,inactive
14,COc1ccc(N(CC(=O)N2CCN(Cc3ccccc3)CC2)S(C)(=O)=O)c(OC)c1,"inconclusive: 10.3 µM [inhibitor, partial curve, poor fit]"
15,N#CCCN(Cc1ccccc1)C(c1ccnc2ccccc12)c1nnnn1-c1ccc2c(c1)OCCO2 (stereo not drawn),"inconclusive: 20.6 µM [inhibitor, single point]"
16,CCN(C[C@H]1N[C@@](C)(C(=O)OC)[C@H]2C(=O)N(Cc3ccccc3)C(=O)[C@@H]12)C(=O)c1ccc(F)cc1,"inconclusive: 18.4 µM [inhibitor, single point]"
17,Cc1ccc(CSc2nnc(-c3cnccn3)n2C)cc1,inactive
18,O=C(OCc1ccccc1)N1C=CCC[C@@H]1c1c(Cl)cccc1Br,"inconclusive: 29.1 µM [inhibitor, single point]"
19,COc1cccc(OCc2nc3ccccc3c(=O)n2N)c1,"inconclusive: 23.1 µM [inhibitor, single point]"
20,Cc1ccccc1CN1C2=NCCN2c2ccccc21,"inconclusive: 18.4 µM [inhibitor, single point]"
21,CCc1cc2c(=O)c(-c3nc4ccccc4n3C)c(C)oc2cc1OC(C)=O,"inconclusive: 6.51 µM [inhibitor, partial curve]"
22,COc1ccc(Cl)cc1NC(=O)C1CCCN(c2ncnc3c2nc2n3CCCCC2)C1 (stereo not drawn),active: 8.2 µM
23,Cc1c(-n2c(SCC(=O)C(C)(C)C)nc3ccccc3c2=O)c(=O)n(-c2ccccc2)n1C,"inconclusive: 29.1 µM [inhibitor, single point]"

row,SMILES,Potency
1,COc1ccc(Cl)cc1NC(=O)CSc1nnc(Cc2ccc(C)cc2)c(=O)[nH]1,inactive
2,CS(=O)(=O)Nc1cccc(C(=O)CC2(O)C(=O)Nc3ccc(Br)cc32)c1 (stereo not drawn),"inconclusive: 20.6 µM [inhibitor, single point]"
3,COC(=O)c1ccc2nc(-c3ccccc3)c(Cc3ccc(OC)cc3C)n2c1,"inconclusive: 20.6 µM [inhibitor, single point]"
4,COc1ccc(Cl)cc1C(Nc1cccnc1)c1ccc2cccnc2c1O (stereo not drawn),"inconclusive: 18.4 µM [inhibitor, single point]"
5,CCN(CC(=O)NCc1ccc(Cl)cc1)C(=O)c1ccc(S(=O)(=O)N(C)C)cc1,inactive
6,Cc1ccc(S(=O)(=O)N2CCC(C(=O)N3CCc4ccccc43)CC2)cc1,"inconclusive: 23.1 µM [inhibitor, single point]"
7,CCOc1cc(/C=C/C(=O)NCCc2ccc(S(N)(=O)=O)cc2)ccc1OCC(C)C,active: 13 µM
8,COc1ccc(CNC(=O)c2cccc3c(-c4cnn(C)c4)coc23)cc1OC,"inconclusive: 29.1 µM [inhibitor, single point]"
9,CC(C)(C)c1ccc(C(=O)Nc2ccc(S(=O)(=O)Nc3cnc4ccccc4n3)cc2)cc1,inactive
10,CCc1cccc2c(C(=O)C(F)(F)F)cn(CC(=O)N3CCOCC3)c12,inactive
11,O=C(Cc1ccc(S(=O)(=O)N2CCOCC2)s1)N(Cc1ccccc1)c1ccccc1,"inconclusive: 29.1 µM [inhibitor, single point]"
12,COC1=CC(=O)CC(C)C12Oc1c(Cl)c(OC)cc(OC)c1C2=O (stereo not drawn),"inconclusive: 33.5 µM [inhibitor, single point] and inconclusive: 29.1 µM [inhibitor, single point]"
13,O=C(c1cccs1)N1CCN(c2nc3ccccc3s2)CC1,"inconclusive: 18.4 µM [inhibitor, single point]"
14,N#Cc1ccccc1NS(=O)(=O)c1ccc(N2CCCCS2(=O)=O)cc1,inactive
15,Cc1cc(OCC(=O)Nn2cnnc2)c(C)cc1Br,inactive
16,Clc1cccc(-c2ccc3nccn3c2)c1Cl,"inconclusive: 18.4 µM [inhibitor, partial curve]"
17,Cc1nc(NC(=O)C2CC2)sc1C(=O)Nc1ccccc1,inactive
18,CCCCN(CC)C(=O)C1CCCN(S(=O)(=O)c2cccc3nsnc23)C1 (stereo not drawn),active: 25.9 µM
19,CSCC[C@H](CO)NC(=O)[C@H]1O[C@@H](n2cnc3c(N)ncnc32)[C@H](O)[C@@H]1O,inactive
20,O=C(N/N=C\c1ccc(-c2ccc([N+](=O)[O-])cc2)o1)C1COc2ccccc2O1 (stereo not drawn),"inconclusive: 29.1 µM [inhibitor, single point]"
21,C[C@@H](C(=O)Nc1ccc2ccccc2c1)[C@H]1C[C@]1(C)[C@H](NC(=O)c1cccnc1)c1ccccc1,"inconclusive: 29.1 µM [inhibitor, single point]"
22,Cc1nonc1C1CCCN1Cc1nc(-c2ccccc2Cl)oc1C (stereo not drawn),"inconclusive: 29.1 µM [inhibitor, single point]"
